Among the data in PubChem BioAssay AID2060488 (Molecular Pharmacology Branch, DTP, NCI, 2025) are viability, T/C values, retold here.

The structures appear in SMILES notation. Not every entry of the source has a single result; some have several. The other results are left out here. The source may hold further records. Values given together are repeats (runs, samples, wells, individuals or studies). Counts like (3×) count equal records among those shown.

This assay deals with 966289-007-R4-J1-PDC complex spheroid viability. Nature of the assay: Anticancer human tumor 966289-007-R4-J1-PDC patient-derived pancreatic adenocarcinoma cell line growth inhibition [GQUAD]. Particulars: compound alone 0.0316 µM; stronger effect = lower value. From the text:
DNA G-quadruplex Stabilizer Agents in Combinations in Complex Spheroids
A high-throughput screen of multi-cell type tumor spheroids was designed to identify active combinations of DNA G-quadruplex stabilizer agents and targeted small molecules. Complex spheroids include a stromal component modeled by human endothelial cells (HUVEC) and fibroblasts modeled by human mesenchymal stem cells (MSCs). The concentration ranges selected for each drug and investigational agent were based upon clinically achievable concentrations if the clinical Cmax of the agent was known.
Compounds. […] If the clinical Cmax for an agent had not been determined, the highest concentration tested was 10 microM. […]
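Further: spheroids exposed to the agents for seven days before readout; percent viability relative to DMSO vehicle control wells taken as 100%.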

A word on the viability, T/C: it is the result in the treated group divided by that in the control group, in per cent. Turning to `Cc1cnc(CNC(=O)c2c(=O)c3ccc(N4CCCN(C)CC4)nc3n3c2sc2ccccc23)cn1`, the viability, T/C was 109, 110 (3×), 119 (2×), 111, 92.8, 118, 106 (2×), 116%.
